Out of some 320,000 compounds screened, about 9,100 (2.8%) were called active. The inconclusive results got no clear call from the source; some entries with a clear call stand among them for comparison. Calls come from the whole dose curve; as a rule, active = well fitted activation curve with a large enough effect; inconclusive = small, poorly fitted or top-dose-only effect; inactive = no such curve, though single readings can be large or run the other way. Potencies of inconclusive entries are doubtful fits and often do not repeat.
Experiment: qHTS Assay for Rab9 Promoter Activators; note: nearly all actives have a fitted effect of over 60% in size; for activation, negative = inhibition: % of control where 0% means no effect
Settings: Huh7 Rab9 promoter-luciferase reporter, luminescence, 24 h; series mostly up to 9.22 µM; activation, negative = inhibition: at the top concentration
How it was run: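 Measured in stably transfected Huh7 cells bearing a Rab9 promoter–luciferase construct: 24 h compound treatment at 37 °C, followed by luminescence detection.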
Potency is the fitted concentration of half-maximal effect; tags give direction and shape of the fitted curve.

Potency, active:
Cn1c(NC(=O)c2ccccc2)nc2ccccc21 2.82 µM
Fc1ccccc1Cn1nnc(-c2ccc3c(c2)OCO3)n1 1.12 µM
Cc1ccc(C(=O)NC2CCC(C)CC2)s1 (configuration not stated) 0.398 µM
CN(Cc1cccs1)C(=O)CCCc1c[nH]c2ccccc12 3.16 µM
Cc1cc2nn(-c3cccc4ccccc34)nc2cc1N 2.82 µM
CC(C)=CC(=O)Nc1nnc(-c2ccccc2)s1 1.41 µM
O=c1c(-c2ccccc2)coc2cc(O)ccc12 2.82 µM
C/C(=N\Nc1nncc2ccccc12)c1cccc(OC(F)F)c1 1.12 µM
Cc1ccc(NC(=O)c2ccc3c(c2)CCN3S(C)(=O)=O)cc1C 3.98 µM
CCC(C)c1ccc(NC(=O)Nc2cccnc2)cc1 (configuration not stated) 4.47 µM
Cc1cc(/C=C2\SC(=O)N(C)C2=O)c(C)n1-c1ccc(O)cc1 0.199 µM
Clc1cccc(-c2cc3nc4c(c(NCc5ccco5)n3n2)CCCC4)c1 2 µM
CC(=O)c1cc(C#N)c(SCC(=O)Nc2nccs2)nc1C 1.26 µM
O=C(NC1=NCCS1)c1cc(-c2ccc(-c3ccccc3)cc2)nc2ccccc12 1.78 µM
O=C(NC1CCCC1)c1cc2c(ccc3ccccc32)o1 1 µM

Potency, inconclusive:
O=S(=O)(Cc1cc(-c2ccccc2)no1)c1ccccc1 3.98 µM [activator, single point]
O=c1c2c(nc3nc(NCc4cccc5ccccc45)[nH]n13)CCC2 5.62 µM [activator, single point]
Cc1ccc(S(=O)(=O)N/N=C/c2cccn2-c2ccc(Cl)cc2)cc1 2.51 µM [activator, partial curve]
C=CCN1CCN(C(=O)CSc2ccccc2)CC1 2.82 µM [activator, single point]
Cc1ccc([N+](=O)[O-])cc1N/C=C1\CCCCC1=O 5.62 µM [activator, single point]
CN1CCN(/N=C/c2ccc(Cl)c(Cl)c2)CC1 3.98 µM [activator, partial curve]
COc1ccc(OC)c(C(C)NC(=O)c2ccco2)c1 (configuration not stated) 0.794 µM [activator, single point]
COC1CCN(C(=O)C2CCC(=O)N(C3CCCCCC3)C2)CC1 (configuration not stated) 5.62 µM [activator, single point]
COc1ccc(-n2ncc3c(=O)n(Cc4c(F)cccc4Cl)cnc32)cc1 2.82 µM [activator, partial curve]
O=C(Nc1ncc(Cc2cccc([N+](=O)[O-])c2)s1)c1ccco1 5.62 µM [activator, single point]
CCc1ccc(CN(C)C(=O)c2cc(COc3ccc(OC)cc3Cl)on2)nc1 2.24 µM [activator, partial curve]
Cc1ccc(C)c(OCC(=O)O/N=C(\N)c2ccccn2)c1 5.62 µM [activator, single point]
COc1ccc(NC(=O)Nc2ccccc2SC)cc1 2.82 µM [activator, partial curve]
CCc1noc(C)c1C(=O)Nc1nc2ccc(F)cc2s1 6.31 µM [activator, single point]
CCn1c(SCC(=O)c2ccccc2)nnc1-c1cccs1 4.47 µM [activator, single point]
CCOC(=O)c1ccc2c(c1)[nH]c(=S)n2CC 3.55 µM [activator, partial curve]
Fc1ccc(COc2cccc3cccnc23)cc1 3.16 µM [activator, single point]
CCC(C)(C)n1nnnc1C(C(C)C)N1CCSCC1 (configuration not stated) 5.62 µM [activator, single point]
CCc1ccc(NC(=O)c2cc(C)no2)cc1 6.31 µM [activator, single point]
O=C(OCC(=O)N1CCN(c2ccccc2)CC1)c1ccccc1NCCO 2.82 µM [activator, single point]
O=C(c1cc2cc(Br)ccc2o1)N1CCOCC1 2.51 µM [activator, partial curve]
CCn1c(-c2cc(-c3ccc(OC(C)C)cc3)nc3ccccc23)n[nH]c1=S 3.55 µM [activator, single point]
O=C(Nc1nc2ccsc2c(=O)s1)c1ccco1 2 µM [activator, partial curve]
CC1CCc2nc(NC(=O)CSc3nc4ccccc4o3)sc2C1 (configuration not stated) 5.62 µM [activator, single point]
COC(=O)c1sccc1NC(=O)/C=C/c1c(Cl)cccc1Cl 3.55 µM [activator, partial curve]
COc1ccc(/C=C\c2nc(=O)c3ccccc3o2)cc1 0.631 µM [activator, full curve]
CCOC(=O)c1ccc(NC(=O)C2C3CCCCC32)cc1 (configuration not stated) 3.55 µM [activator, partial curve]
Oc1ccccc1-c1csc(-c2ccccc2)n1 6.31 µM [activator, single point]
O=C(NC1CCOC1)c1cc(COc2cccc(C(F)(F)F)c2)on1 (configuration not stated) 3.55 µM [activator, single point]
COC(=O)CC(c1ccc(C(C)C)cc1)n1cccc1 (configuration not stated) 1.26 µM [activator, single point]
Cc1cccc(NC(=O)CCNC(=O)c2ccc(Br)cc2)c1 5.62 µM [activator, single point]
COc1ccccc1C(=O)NNC(=S)Nc1ccccc1 5.62 µM [activator, single point]
CC(=O)c1ccc(NS(=O)(=O)c2c(C)cc(C)cc2C)cc1 2.82 µM [activator, partial curve]
O=C(CSc1nnnn1-c1ccccc1)c1ccco1 4.47 µM [activator, partial curve]
COCCn1c(C)cc(C(=O)COC(=O)Cc2n[nH]c(=O)c3ccccc23)c1C 0.355 µM [activator, full curve, poor fit]
O=C(CC1Nc2ccccc2NC1=O)Nc1ccccc1 (configuration not stated) 6.31 µM [activator, single point]
O=C(O)c1ccc(N/N=C/c2ccc(-c3cc(Cl)ccc3Cl)o2)cc1 0.316 µM [activator, partial curve]
Cc1nc2sc(-c3ccccc3)cc2c(=O)n1N 0.0891 µM [activator, full curve, poor fit]
Cc1ccc(C2=N/C(=C\N(C)C)C(=O)O2)cc1 6.31 µM [activator, single point]
O=[N+]([O-])c1ccc(COc2cccnc2)cc1 5.62 µM [activator, single point]
Cc1nc(C#N)c(N/N=C/c2cccc(Cl)c2)o1 3.16 µM [activator, single point]
CC(O)CN=c1cc(-c2ccccc2)oc2ccc(Cl)cc12 (configuration not stated) 5.62 µM [activator, single point]

activation, negative = inhibition, inactive:
Cc1ccccc1NS(=O)(=O)c1ccc(C(=O)N2CCCCCC2)cc1 0.507%
COc1ccc(/C(N)=N/OC(=O)CCC2CCCC2)cc1OC 1.57%
COc1nc(N)nc(N2CCOCC2)n1 -5.13%
O=C1c2ccccc2CCC12N=NCC2c1ccc(Br)cc1 (configuration not stated) 0.543%
Cc1ccc(-c2noc(C3CCCN(S(=O)(=O)c4ccc5ccccc5c4)C3)n2)o1 (configuration not stated) -7.33%
CC(C)COc1cccc(C(=O)NC2(C)CCS(=O)(=O)C2)c1 (configuration not stated) 17.5%
COc1ccc(C(=O)O)cc1N1C(=O)Nc2ccccc2N1O -1.02%
Cc1nnc(NC(=O)c2cccc(S(=O)(=O)N(C)c3cccc(Cl)c3)c2)s1 -8.23%
O=C(Nc1ccn(-c2ccccc2)n1)c1ccc(S(=O)(=O)N2CCCCCC2)cc1 -10.4%
Cc1cc(NCCCN)nc(-c2ccccc2O)n1 12.8%
O=C(NCc1cccnc1)c1ccc(NC(=O)c2ccc([N+](=O)[O-])cc2)cc1 4.3%
COc1ccc(CC(=O)Nc2cccc(-c3nnc(-c4ccc(C)cc4)o3)c2)cc1OC -4.87%
O=C(COC(=O)c1ccc(Cl)s1)c1cc2ccccc2o1 1.84%
CC(c1ccon1)N(C)C(=O)c1ccc2nc(Cc3cccc(Cl)c3)oc2c1 (configuration not stated) -7.41%
CC1CCc2sc(C(=O)N/N=C/c3ccc(O)cc3)cc2C1 (configuration not stated) -1.02%
Cc1cc(C)c(S(=O)(=O)Nc2ccc(Cl)cn2)c(C)c1 -2.77%
CCN(CC(=O)NCc1ccc(F)cc1)C(=O)CN1CCN(c2ccc(OC)cc2)CC1 1.88%
Cc1nnc(SCC(=O)Nc2sccc2C(N)=O)s1 0.601%
O=C1Cc2ccccc2C(=O)N1OCc1ccc(Cl)cc1Cl 2.93%
O=C(COC(=O)c1ccc(O)cc1O)Nc1nnc(-c2ccccc2)o1 -1.17%
COc1cc(C(=O)NNC(=O)C2CC2)cc(OC)c1OC -1.97%
O=C(Nc1ccc2c(c1)OCO2)N1CCOCC1 18.6%
O=c1[nH]c(=O)c2nc(-c3ccc(Cl)cc3)cnc2[nH]1 0.533%
COc1cc(C(=O)Nc2sc3c(c2C(=O)O)CCC3)cc(OC)c1OC -6.56%
Cc1ccc(S(=O)(=O)Nc2cc(C)c(O)c(Sc3n[nH]c(C)n3)c2)cc1 0.281%
